Source: the RNAGym collection of RNA variant scans (doi:10.7554/elife.90254)
Read counts are not given, so values of variants with three or more changes are uncertain.

B1: LINE1-mini (parent)
chain: GGCAGAGCUCAACACAGCGUGGCAAAGUGGCUGUGGCUAGACUGCC

Variants of: B1
Assay: self-cleavage, relative activity (ratio to wild type); higher = more cleavage; in vitro, sequencing; the parent is a self-cleaving ribozyme

| Variant | self-cleavage |
| --- | --- |
| G5A G7C C15U G36U C42G U43C | 0.11 |
| G5A A25U G33C | 0.13 |
| G5A C37U A39G | 0.04 |
| G5A G7C C31G G33A C46U | 0.03 |
| G5C C18G C23G | 0.01 |
| G5C C10U C18G G27A | 0.02 |
| G5A A26G U38G | 0.03 |
| G5A G17A A25C A41U C42U | 0.05 |
| G5A A25U A39C A41G | 0.13 |
| G5A G17U U20A A24G U34C A39U | 0.01 |
| G5A G17U U38A C42G | 0.03 |
| G5C A14C G35C | 0.06 |
| G5C C8A A24U U43C | 0.22 |
| G5C C10A G33C | 0.02 |
| G5A A11G G40C | 0.01 |
| G5A U9C U20G G44C | 0.02 |
| G5C C13U A14U U38C | 0.02 |
| G5A A6G U20A | 0.06 |
| G5A A14U G17U | 0.04 |
| G5A C37A G44C | 0.02 |
| G5A G7A G33C | 0.16 |
| G5C A6G U9G A16U G21A C31U C37A | 0.04 |
| G5A G19U U34C U38A A41C | 0.01 |
| G5C C10A U28G | 0.03 |

| Variant | self-cleavage |
| --- | --- |
| G5C A6C G17U | 0.07 |
| G5C A6U A16C C31G | 0.03 |
| G5A C10G A11G G21A A26U G29U C42U | 0.01 |
| G5A C15U G22U G29C G30U U32C G40A | 0.03 |
| G5A C23U C45U | 0.13 |
| G5A G30C C37G G40A | 0.04 |
| G5C A12G C23A A26G G29C G30U | 0.07 |
| G5A A25G U34A G35U C42G | 0.01 |
| G5A C10U G17C G21C G40C | 0.02 |
| G5C C15A U20C C37G C42U | 0.02 |
| G5A G7C C15G C18A C23U A26U G35A | 0.06 |
| G5A G7U U9A | 0.56 |
| G5A C8A A12G A39U | 0.03 |
| G5A G33A G35U | 0.11 |
| G5A A25G A26U U28G | 0.09 |
| G5A A24G G27C | 0.16 |
| G5A A14C C15A U32C U34A G44U | 0 |
| G5A C10U G22C | 0.05 |
| G5A C18G C37A | 0.16 |
| G5A C8A C15U G36U | 0.41 |
| G5A A6G A25G C31U C42U | 0.02 |
| G5A C23A A25U | 0.26 |
| G5C A26C C45G | 0.06 |
| G5A A11C A41U C45G | 0.01 |

| Variant | self-cleavage |
| --- | --- |
| G5A C13U C15A G22A C31G G33U A41G | 0.07 |
| G5A G35U C46A | 0.03 |
| G5C C18U G19C A39U | 0.04 |
| G5A C15A U20A | 0.03 |
| G5A C23A G27A U28A | 0.02 |
| G5A G7A C18U C23A U32G | 0.18 |
| G5A C8A C45U | 0.73 |
| G5A C15G U32A | 0.01 |
| G5A A6G A12C G21C G22C A39C A41G | 0 |
| G5A C18A A41G | 0.03 |
| G5A A6G C31U C37U A39U A41U | 0.03 |
| G5A U20C G22A G40A U43A | 0 |
| G5C G7A C10G A24U G33U | 0.02 |
| G5C G7A C10U A16C C18U A24U C46G | 0.03 |
| G5C A12C G40A | 0.05 |
| G5C C37U C45A | 0.04 |
| G5A U9G C46G | 0.15 |
| G5A C10U A39C | 0.08 |
| G5A C18U A25C A39U | 0.01 |
| G5C C13U U32G | 0.18 |
| G5C A6G C13U U20A C31A A41C | 0.02 |
| G5A A6G A25U | 0.1 |
| G5A A12U U32C | 0.09 |
| G5A G7A A25C C31U | 0.16 |

| Variant | self-cleavage |
| --- | --- |
| G5A A12C G30C C31G G35A C37A | 0 |
| G5A G30U G36U | 0.27 |
| G5A A6U A26U | 0.13 |
| G5A C15G G36A C42U | 0.1 |
| G5A G17U G44A | 0.01 |
| G5A C10A A12G | 0 |
| G5A C18A G44C | 0.02 |
| G5C A12U C13G G22U U28G C46U | 0 |
| G5C C8G C13A C23A C37A | 0 |
| G5A G27C G29U G36C U38C | 0 |
| G5A C10U A12G C18A A25C G35U A39U | 0.03 |
| G5A C15G A16C C23G | 0.09 |
| G5C A12C A25G U43C | 0.01 |
| G5A G17U C18G G29U U38C | 0.05 |
| G5A G30U C45A | 0.07 |
| G5A G21C C23G A39G G44A | 0.07 |
| G5A G7U G27A | 0.19 |
| G5A A12G U20C G29U | 0.02 |
| G5A C18U G22U C45A | 0.03 |
| G5A U38C C46A | 0.13 |
| G5A G17C C31U | 0.05 |
| G5C C18A U20A G44C | 0.03 |
| G5C A6G C42A C45G C46A | 0.6 |
| G5A U9A A11U C13U C23A U28G G35A | 0.05 |

| Variant | self-cleavage |
| --- | --- |
| G5A A6G C15A G40C | 0.06 |
| G5A A6U A16G A25U G35A C45G | 0.02 |
| G5C A12U C18A G27C | 0.01 |
| G5A C18U G19C G35U U38A | 0.02 |
| G5A U20G A24U | 0.02 |
| G5C A6C U9A C10U G17A A24G G27C G29U | 0.06 |
| G5A G29U C45G | 0.03 |
| G5C C18G A26U | 0.05 |
| G5C C15G C31G G33A | 0.02 |
| G5A C13U G29A | 0.16 |
| G5A A6C U9G A26G A39G | 0.21 |
| G5A A16C G33C | 0.03 |
| G5C C13A A24G G29C | 0.11 |
| G5C A26U G40U | 0.04 |
| G5C C8U G17U G19A A24U A26G | 0.02 |
| G5A A16U A24C G29C G40U | 0.04 |
| G5A A11U C42A | 0.01 |
| G5A C10U G19U A26C | 0.04 |
| G5A C31A A41U | 0.04 |
| G5C A11G G17U | 0.03 |
| G5A G7C C15U | 0.38 |
| G5A G40C A41U | 0.1 |
| G5C A12U C13U | 0.06 |
| G5A A12U G33U G40U | 0.04 |

| Variant | self-cleavage |
| --- | --- |
| G5A G17C C18A U38C | 0.03 |
| G5A C10A C23U G30C C37U | 0.01 |
| G5A A12G U28A | 0.02 |
| G5A A11G C18U G40A | 0.02 |
| G5A C10G C15U A26C | 0.06 |
| G5A C13G G27C | 0 |
| G5C C18G A39U U43A | 0.06 |
| G5A C15A A26U | 0.16 |
| G5C A12U G27A | 0.03 |
| G5A U20C G33U U38C A39U | 0.02 |
| G5A G7C C8G A11U | 0.06 |
| G5C A11C A26C C37G | 0.01 |
| G5C A6G G7A C31A G35C | 0.09 |
| G5A C8A G17A G19A G36U | 0.15 |
| G5A C31A G33U A41C | 0.06 |
| G5A G19U U20G U32A | 0.08 |
| G5A U9G C18A C31U G40A | 0.15 |
| G5C C8U A26U | 1.53 |
| G5C C13U C23U G30U G33C | 0.03 |
| G5C A6G A11U G33A | 0.03 |
| G5A G21U A24U A25C C31G G40U | 0.02 |
| G5A G36U C46A | 0.05 |
| G5C A14U A16U G17U G30A C31G | 0.01 |
| G5C C8U C18U C31G | 0.11 |

| Variant | self-cleavage |
| --- | --- |
| G5A A12C C15G C23U G27U | 0.01 |
| G5C C8U C10A A24G | 0.03 |
| G5A U9C A41U | 0.03 |
| G5C A12G C18A U20A A24U | 0.01 |
| G5A C10A A11U C46A | 0.04 |
| G5C A11U A26G U34C U38A | 0.03 |
| G5C A11G C13A | 0.05 |
| G5A A16G A25U | 0.12 |
| G5A G17A A25U G30A | 0.15 |
| G5A G40U U43C | 0.03 |
| G5A C10A C15U C37A | 0.01 |
| G5A C8U G27C G40U | 0.09 |
| G5A A14G G35C C37U | 0.02 |
| G5C C8A A16G G40U | 0.19 |
| G5A A14G C18U G21U G36A | 0.14 |
| G5A U20A G22C | 0.04 |
| G5A U32A G33U G36A C42U | 0.05 |
| G5A A11U C23U C42U | 0.41 |
| G5C C10A C15A G21A | 0.01 |
| G5A G7U A26U | 1.23 |
| G5C A11U A12U A14G U20A A39G | 0.02 |
| G5A U9C G19C G36A A39G | 0.01 |
| G5C A25U C31U G36C | 0.03 |
